Assay results taken from article PMC9911399, “Two distinct binding modes provide the RNA-binding protein RbFox with extraordinary sequence specificity”.
Substitutions are numbered along the chain they refer to; changes in the protein carry UniProt numbers. The list shows a part of the results.

T1: RBFOX1 RRM (Homo sapiens, UniProt Q9NWB1 109-208)
T1 sequence: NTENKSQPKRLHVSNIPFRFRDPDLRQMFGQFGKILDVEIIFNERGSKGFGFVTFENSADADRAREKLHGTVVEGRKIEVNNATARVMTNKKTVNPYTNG

B1: UCUGCUA (DNA:RNA)
RNA: GGGAGACCGGAAUUCAGAUUGUCCUCUGCUAUUAAAUCCCGUCGUAGCCACCA
DNA 1: CAATCTGAATTCCGGTCTCCC
DNA 2: TGGTGGCTACGACGGGATT
B2: GCGGUGG (DNA:RNA)
RNA: B1 RNA with U25G, U27G, C29U, U30G, A31G
DNA 1: CAATCTGAATTCCGGTCTCCC
DNA 2: TGGTGGCTACGACGGGATT
B3: CAAGCAC (DNA:RNA)
RNA: B1 RNA with U25C, C26A, U27A, U30A, A31C
DNA 1: CAATCTGAATTCCGGTCTCCC
DNA 2: TGGTGGCTACGACGGGATT
B4: UCCGACG (DNA:RNA)
RNA: B1 RNA with U27C, C29A, U30C, A31G
DNA 1: CAATCTGAATTCCGGTCTCCC
DNA 2: TGGTGGCTACGACGGGATT
B5: UAUAUAC (DNA:RNA)
RNA: B1 RNA with C26A, G28A, C29U, U30A, A31C
DNA 1: CAATCTGAATTCCGGTCTCCC
DNA 2: TGGTGGCTACGACGGGATT
B6: GCGAUCC (DNA:RNA)
RNA: B1 RNA with U25G, U27G, G28A, C29U, U30C, A31C
DNA 1: CAATCTGAATTCCGGTCTCCC
DNA 2: TGGTGGCTACGACGGGATT
B7: GUUUCGG (DNA:RNA)
RNA: B1 RNA with U25G, C26U, G28U, U30G, A31G
DNA 1: CAATCTGAATTCCGGTCTCCC
DNA 2: TGGTGGCTACGACGGGATT
B8: AUUAGUC (DNA:RNA)
RNA: B1 RNA with U25A, C26U, G28A, C29G, A31C
DNA 1: CAATCTGAATTCCGGTCTCCC
DNA 2: TGGTGGCTACGACGGGATT
B9: CGAGCCA (DNA:RNA)
RNA: B1 RNA with U25C, C26G, U27A, U30C
DNA 1: CAATCTGAATTCCGGTCTCCC
DNA 2: TGGTGGCTACGACGGGATT
B10: UGCUCCU (DNA:RNA)
RNA: B1 RNA with C26G, U27C, G28U, U30C, A31U
DNA 1: CAATCTGAATTCCGGTCTCCC
DNA 2: TGGTGGCTACGACGGGATT
B11: AAUAGAC (DNA:RNA)
RNA: B1 RNA with U25A, C26A, G28A, C29G, U30A, A31C
DNA 1: CAATCTGAATTCCGGTCTCCC
DNA 2: TGGTGGCTACGACGGGATT
B12: CGUGUUU (DNA:RNA)
RNA: B1 RNA with U25C, C26G, C29U, A31U
DNA 1: CAATCTGAATTCCGGTCTCCC
DNA 2: TGGTGGCTACGACGGGATT
B13: ACGAUAC (DNA:RNA)
RNA: B1 RNA with U25A, U27G, G28A, C29U, U30A, A31C
DNA 1: CAATCTGAATTCCGGTCTCCC
DNA 2: TGGTGGCTACGACGGGATT
B14: GCGAAAC (DNA:RNA)
RNA: B1 RNA with U25G, U27G, G28A, C29A, U30A, A31C
DNA 1: CAATCTGAATTCCGGTCTCCC
DNA 2: TGGTGGCTACGACGGGATT
B15: UAACCUA (DNA:RNA)
RNA: B1 RNA with C26A, U27A, G28C
DNA 1: CAATCTGAATTCCGGTCTCCC
DNA 2: TGGTGGCTACGACGGGATT
B16: UAUGGUA (DNA:RNA)
RNA: B1 RNA with C26A, C29G
DNA 1: CAATCTGAATTCCGGTCTCCC
DNA 2: TGGTGGCTACGACGGGATT
B17: AGCGAGU (DNA:RNA)
RNA: B1 RNA with U25A, C26G, U27C, C29A, U30G, A31U
DNA 1: CAATCTGAATTCCGGTCTCCC
DNA 2: TGGTGGCTACGACGGGATT
B18: UUUCACA (DNA:RNA)
RNA: B1 RNA with C26U, G28C, C29A, U30C
DNA 1: CAATCTGAATTCCGGTCTCCC
DNA 2: TGGTGGCTACGACGGGATT
B19: UUUUGCG (DNA:RNA)
RNA: B1 RNA with C26U, G28U, C29G, U30C, A31G
DNA 1: CAATCTGAATTCCGGTCTCCC
DNA 2: TGGTGGCTACGACGGGATT
B20: UCGGAGA (DNA:RNA)
RNA: B1 RNA with U27G, C29A, U30G
DNA 1: CAATCTGAATTCCGGTCTCCC
DNA 2: TGGTGGCTACGACGGGATT

Each binder was assayed against T1, RBFOX1 RRM (assay: EMSA; HiTS-Eq, 1 nM pool, 10 min; buffer printed only for the single-RNA assays: 10 mM Tris pH 7.5, 150 mM NaCl, 3.4 mM EDTA, 0.001% NP-40, 30 C). Conditions: tags: His6 N-terminal (pET28a); label: 5' 32P.
Outline: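 Purified wild-type or mutant RbFox RRM at increasing concentrations was equilibrated with 1 nM of 5′-radiolabelled RNA carrying 7 randomized nucleotides for 10 min in 50 µL. Unbound RNA was separated by 8% native PAGE and sequenced. Relative association constants came from read-count changes of each RNA species compared with the control reaction, normalised to the cognate motif.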

First: B1
Second: B2
The binding signal of the first is lower: 0.0183 KA relative to UGCAUGU for the first, 0.0218 KA relative to UGCAUGU for the second.

First: B3
Second: B4
The binding signal of the first is lower: 0.00463 KA relative to UGCAUGU for the first, 0.0114 KA relative to UGCAUGU for the second.

First: B5
Second: B6
The binding signal of the first is lower: 0.00267 KA relative to UGCAUGU for the first, 0.0139 KA relative to UGCAUGU for the second.

First: B7
Second: B8
The binding signal of the first is lower: 0.0087 KA relative to UGCAUGU for the first, 0.0112 KA relative to UGCAUGU for the second.

First: B9
Second: B10
The binding signal of the first is lower: 0.007 KA relative to UGCAUGU for the first, 0.0145 KA relative to UGCAUGU for the second.

First: B11
Second: B12
The binding signal of the first is lower: 0.00275 KA relative to UGCAUGU for the first, 0.015 KA relative to UGCAUGU for the second.

First: B13
Second: B14
The binding signal of the first is lower: 0.00336 KA relative to UGCAUGU for the first, 0.00995 KA relative to UGCAUGU for the second.

First: B15
Second: B16
The binding signal of the first is lower: 0.000958 KA relative to UGCAUGU for the first, 0.0122 KA relative to UGCAUGU for the second.

First: B17
Second: B18
The binding signal of the first is higher: 0.015 KA relative to UGCAUGU for the first, 0.000705 KA relative to UGCAUGU for the second.

First: B19
Second: B20
The binding signal of the first is higher: 0.0222 KA relative to UGCAUGU for the first, 0.00763 KA relative to UGCAUGU for the second.
